Data as given in the antibiotic and cytotoxicity screens of Wong et al. (2023).
This is one part of the list.

What was measured:
HSkMC = human skeletal muscle cells; experiment: cytotoxicity call (relative viability < 0.9); conditions: 10 µM
HepG2 = experiment: cytotoxicity call (relative viability < 0.9); conditions: 10 µM
S. aureus RN4220 = experiment: growth inhibition call (relative growth <= 0.2); conditions: 50 µM

Structure (SMILES) | cytotoxicity call (HSkMC) | cytotoxicity call (HepG2) | growth inhibition call (S. aureus RN4220)
C[C@H]1CN([C@@H](C)CO)C(=O)Cc2cc(NS(C)(=O)=O)ccc2O[C@@H]1CN(C)S(=O)(=O)c1cccs1 | inactive | inactive | inactive
C#Cc1ccc(C(=O)NO)s1 | inactive | inactive | inactive
C[C@@H]1CN([C@@H](C)CO)C(=O)CCCn2cc(nn2)CO[C@@H]1CN(C)C(=O)CCCN(C)C | inactive | inactive | inactive
COc1cccc2c1C(=O)c1c(O)c3c(c(O)c1C2=O)C[C@](O)(C(C)=O)C[C@H]3O[C@H]1C[C@@H](N)[C@@H](O)[C@@H](C)O1 | active | active | active
COCCOC(=O)N1C(=O)[C@@]2(c3cc(C#CCC(C(=O)OC)C(=O)OC)ccc31)[C@H](c1ccc(O)cc1)N1[C@H](c3ccccc3)[C@H](c3ccccc3)OC(=O)[C@H]1[C@@H]2C(=O)N1CCc2cc(OC)c(OC)cc2C1 | inactive | inactive | inactive
CC(C)(C)OC(=O)N1CC[C@H](c2cn(-c3ccc(C(F)(F)F)cc3)nn2)[C@@H]1C(=O)Nc1cccc2cccnc12 | inactive | inactive | inactive
C[C@H](CO)N1C[C@H](C)[C@H](CN(C)S(C)(=O)=O)Oc2ccc(NC(=O)CCCN(C)C)cc2CC1=O | inactive | inactive | inactive
COC(=O)c1c2oc(c1C(=O)OC)C(=O)N[C@@H](Cc1ccccc1)Cn1cc(nn1)[C@@H](Cc1ccccc1)NC(=O)N[C@@H](CO)CC2 | inactive | inactive | inactive
COCCOC(=O)N1C(=O)[C@@]2(c3cc(C#CC4(O)CCCCCC4)ccc31)[C@H](c1ccc(OCCO)cc1)N1[C@H](c3ccccc3)[C@H](c3ccccc3)OC(=O)[C@H]1[C@@H]2C(=O)NC[C@H](O)c1ccccc1 | inactive | inactive | inactive
COc1cc2c(cc1OC)CN(C(=O)[C@H]1[C@@H]3C(=O)O[C@@H](c4ccccc4)[C@@H](c4ccccc4)N3[C@@H](c3ccc(OCCO)cc3)[C@]13C(=O)Nc1ccc(C#CCCO)cc13)CC2 | inactive | inactive | inactive
COc1ccc(S(=O)(=O)N[C@@H]2C=C[C@@H](CC(=O)N3CCC(Cc4ccccc4)CC3)O[C@@H]2CO)cc1 | inactive | inactive | inactive
CO[C@H]1CN(C)C(=O)c2ccc(NC(=O)c3ccc(F)cc3)cc2OC[C@@H](C)N(C(=O)CN(C)C)C[C@@H]1C | inactive | inactive | inactive
Cc1ccc(S(=O)(=O)Nc2ccc3c(c2)C(=O)N([C@@H](C)CO)C[C@@H](C)[C@H](CN(C)Cc2ccc(C(F)(F)F)cc2)O3)cc1 | inactive | inactive | inactive
C[C@H](CO)N1C[C@H](C)[C@H](CN(C)Cc2ccncc2)Oc2c(NC(=O)Nc3ccc(C(F)(F)F)cc3)cccc2C1=O | inactive | inactive | inactive
C[C@@H]1CN([C@H](C)CO)C(=O)c2cc(NC(=O)Nc3ccc4c(c3)OCO4)ccc2O[C@@H](C)CCCCO[C@H]1CN(C)C(=O)c1ccccc1 | inactive | inactive | inactive
C[C@@H]1CCCCO[C@@H](CN(C)S(=O)(=O)c2ccc(F)cc2)[C@@H](C)CN([C@H](C)CO)C(=O)c2cc(NC(=O)Nc3cccc4ccccc34)ccc2O1 | inactive | inactive | inactive
C[C@@H]1CCCCO[C@@H](CN(C)C(=O)CCC(F)(F)F)[C@@H](C)CN([C@@H](C)CO)C(=O)c2cc(NS(=O)(=O)c3cccs3)ccc2O1 | inactive | inactive | inactive
C[C@@H]1CN([C@@H](C)CO)C(=O)Cc2cc(NC(=O)Nc3cccc4ccccc34)ccc2O[C@@H]1CN(C)Cc1ccc(Oc2ccccc2)cc1 | inactive | inactive | inactive
C[C@@H]1CN([C@H](C)CO)C(=O)c2cccc(NC(=O)C3CCCCC3)c2O[C@H]1CN(C)C(=O)Nc1cccc2ccccc12 | inactive | inactive | inactive
C[C@H](CO)N1C[C@H](C)[C@H](CN(C)S(C)(=O)=O)Oc2ccc(NC(=O)Cn3cnnn3)cc2C1=O | inactive | inactive | inactive
C[C@@H]1CN([C@H](C)CO)C(=O)c2ccccc2-c2ccccc2CO[C@@H]1CN(C)Cc1cccc2c1OCCCO2 | inactive | inactive | inactive
C[C@@H]1CN([C@@H](C)CO)C(=O)c2cc(NC(=O)C3CCCCC3)ccc2O[C@H]1CN(C)Cc1ccc(Oc2ccccc2)cc1 | inactive | inactive | inactive
O=C(N[C@H]1CC[C@@H](CCn2cc(C3(O)CCCC3)nn2)O[C@H]1CO)C1CCOCC1 | inactive | inactive | inactive
CO[C@@H]1CN(C)C(=O)c2cc(NC(=O)C3CCOCC3)ccc2OC[C@@H](C)N(C(=O)C2CCOCC2)C[C@H]1C | inactive | inactive | inactive
COc1cccc(S(=O)(=O)N(C)C[C@@H]2Oc3ncc(C#CCC(C)C)cc3C(=O)N([C@H](C)CO)C[C@H]2C)c1 | inactive | inactive | inactive
